About 230 (0.21%) of roughly 110,000 compounds showed an effect of 50% or more. The list shows a part of the results.
Molecular target: DPAP1 (Plasmodium falciparum, UniProt Q8IIJ9)
Test: primary screen, percent inhibition; read by cleavage of a fluorogenic dipeptide substrate; higher = more effect of the substance
Design: species or system P. falciparum D10 trophozoite lysates; single well
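Also: 30 min substrate incubation versus DMSO and 10 µM JCP410 controls.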

Chain of DPAP1 (Q8IIJ9 whole entry, looked up): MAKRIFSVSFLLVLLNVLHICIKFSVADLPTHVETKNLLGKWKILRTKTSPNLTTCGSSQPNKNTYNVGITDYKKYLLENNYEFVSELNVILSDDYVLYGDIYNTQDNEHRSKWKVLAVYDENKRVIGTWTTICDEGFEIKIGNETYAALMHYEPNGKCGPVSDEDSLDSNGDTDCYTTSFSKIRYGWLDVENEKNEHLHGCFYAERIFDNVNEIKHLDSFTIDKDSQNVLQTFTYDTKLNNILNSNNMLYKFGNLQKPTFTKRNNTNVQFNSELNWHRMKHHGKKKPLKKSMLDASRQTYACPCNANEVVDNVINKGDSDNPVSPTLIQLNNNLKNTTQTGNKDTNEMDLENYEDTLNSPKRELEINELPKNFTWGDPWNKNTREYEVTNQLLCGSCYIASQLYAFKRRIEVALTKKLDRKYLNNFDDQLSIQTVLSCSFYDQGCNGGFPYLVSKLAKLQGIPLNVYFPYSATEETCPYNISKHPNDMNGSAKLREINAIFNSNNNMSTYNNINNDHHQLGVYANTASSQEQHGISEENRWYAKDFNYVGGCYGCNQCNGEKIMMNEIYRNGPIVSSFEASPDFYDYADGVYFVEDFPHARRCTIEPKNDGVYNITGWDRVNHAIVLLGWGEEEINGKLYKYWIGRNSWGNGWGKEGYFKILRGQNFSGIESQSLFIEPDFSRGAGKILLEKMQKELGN

Compound	% Inhibition @ 10 uM [%]
CC(C)(C)OC(=O)N[C@@H](Cc1ccc(-c2ccccc2)s1)C(=O)NCC#N	6.03
CCOc1ccc(N2C(=O)CC(NC3CCC(C)CC3)C2=O)cc1 (stereo not drawn)	0.749
CC1(C)Cc2c(C#N)c(NCCN3CCOCC3)nc(-c3ccco3)c2CO1	-3.13
Cc1ccc(CN(C)S(=O)(=O)c2c(C)noc2/C=C/N(C)C)cc1	3.07
Cn1cc([N+](=O)[O-])c(C(=O)Nc2ccc(Cl)cc2Cl)n1	2.17
CN(c1ccc(C(=O)Nc2cccnc2)cc1)S(C)(=O)=O	-1.51
COc1ccc(CCNC(=O)C2CCC(Cn3c(=O)[nH]c4ccsc4c3=O)CC2)cc1OC (stereo not drawn)	2.64
COc1cccc2c1OC(C(C)C)N1N=C(c3ccccc3O)CC21 (stereo not drawn)	4.97
CC1=C(C(=O)OCCOc2ccccc2)C(c2ccc(Cl)c(Cl)c2)NC(=O)N1 (stereo not drawn)	-2.87
Cc1ccc(Cn2c(C(=O)O)c(CNCCC3=CCCCC3)c3ccc(C)cc32)cc1	2.33
CS(=O)(=O)N1CCC(C(=O)Nc2ccc(Cl)cc2Cl)CC1	-2.21
CCCS(=O)(=O)N1CCC(C(=O)Nc2ccc(Br)cc2)CC1	-14
CCNc1nc2nc(O)c3c(c2s1)OC(N)=C(C#N)C3c1cccs1 (stereo not drawn)	-2.83
CC(=O)c1ccc(N2C(=O)c3ccc(C(=O)c4ccccc4)cc3C2=O)cc1	-3.24
COc1cc(OC)cc(C(=O)Nc2ccccn2)c1	-3.92
CCOC(=O)N1CCN(C(=O)CSc2nnc(Cc3cccn3C)n2CCc2ccccc2)CC1	-2.19
COc1ccc2ncc(C(=O)c3ccccc3)c(N3CCC(C(N)=O)CC3)c2c1	-7.3
CCOC(=O)c1c(NC(=O)CSc2c[nH]c3ccccc23)sc2c1CCCC2	9.23
CSc1ncc(Cl)c(C(=O)Nc2cccnc2)n1	-4.64
O=C(Nc1ccc(CN2CCOCC2)cc1)c1cccc(F)c1	0.709
COc1ccc(C(=O)N(CCc2ccccc2)Cc2ccccc2)c(OC)n1	-6.91

Compound	% Inhibition @ 10 uM [%]
CC1CN(C2CCC(c3ccccc3)CC2)CC(C)O1 (stereo not drawn)	1.57
CCOc1cc(CNC2=NS(=O)(=O)C(c3ccc(C(C)C)cc3)=C2C)cc(OCC)c1OCC	-1.3
COCc1cc(O)n2nc(N)nc2n1	3.79
COc1ccc2ccccc2c1CN1CCOCC1	-6.82
Cc1cc(C)c(C(=O)CSc2nc3cccnc3[nH]2)cc1C	-3.53
CCc1nc2cccnc2n1-c1ccc(CC(=O)O)cc1	3.24
CC(C)Cn1c(=O)c2ccccc2n2c(CCC(=O)N3CCN(c4ccccn4)CC3)nnc12	-0.692
CC1=NN(C2=NS(=O)(=O)c3ccccc32)C(C)(O)C1 (stereo not drawn)	2.26
COc1ccc(NC(=O)c2cccc(S(=O)(=O)Nc3ccccc3C)c2)cc1	1.44
CCN1CCN(C(=O)C2CCCN(S(=O)(=O)N3CCCCCC3)C2)CC1 (stereo not drawn)	3.96
Cc1nc(NCc2ccco2)c2c3c(sc2n1)CCCC3	-0.424
CC(C)CC(=O)n1nc(-c2ccco2)nc1NCc1cccs1	1.9
COc1cc(S(=O)(=O)N2CCOCC2)c(OC)cc1Cl	2.05
COc1cccc(CN2CCN(Cc3ccco3)CC2)c1OC	-7.15
Cc1n[nH]c(C)c1CCCCCOc1ccc(F)cc1	-6.12
CCOc1ccc(C(=O)C2=C(O)C(=O)N(Cc3cccnc3)C2c2ccc(C(C)C)cc2)c(C)c1 (stereo not drawn)	4.54
COc1ccc2c(Cl)c(C(=O)N3CCOCC3)sc2c1	3.05
CC(C)CS(=O)(=O)C1=NSC2=NC(=O)/C(=C\c3ccc(OCC(=O)O)cc3)C(=N)N21	-3.62
c1cnc(N2CCN(Cc3cccnc3)CC2)nc1	-0.969
COc1ccc(C2=NN(CCC(=O)NCc3ccccc3Cl)C(=O)CC2)cc1	0.718
COc1cccc(/C=C2\SC(Nc3ccc(Cl)cc3)=NC2=O)c1OC	0.475

Compound	% Inhibition @ 10 uM [%]
Cc1nn(CC(=O)N2CCC(Cc3ccccc3)CC2)c(=O)c2c1sc1ccccc12	-5.78
COc1ccc(C2=NNc3nc4c(c(=O)[nH]c(=O)n4C)n3C2)cc1	-3.69
Cc1ccc(NC(=O)c2ccc3c(c2)OCO3)cc1Cl	1.84
Cc1ccc(-n2nc3c(N4CCCC(C(=O)NCCC5=CCCCC5)C4)nnc(C)c3c2C)cc1 (stereo not drawn)	7.55
CCOC(=O)N1CCN(c2c(NCc3ccccc3Cl)c(=O)c2=O)CC1	0.277
CC1(C)CC(Nc2nc(Cl)c(C#N)c(Cl)c2Cl)CC(C)(C)N1	2.24
CN1C(=O)C(C2c3ccccc3Oc3ccccc32)C(=O)N(C)C1=O	-6.07
CC1(C)CC(=O)C2=C(C1)OC(N)=C(C#N)C2c1ccc(C(C)(C)C)s1 (stereo not drawn)	5.66
Cc1cc(F)c(F)c(C(=O)N2CCOCC2)c1Cl	-2.97
COc1ccc(C(c2c(O)ccc3ccccc23)N2CCOCC2)cc1 (stereo not drawn)	-0.0217
COc1ccc(C2=N/C(=C\c3cccs3)C(=O)O2)cc1Br	-5.29
Cc1oc(-c2ccccc2)nc1C12CC3CC(CC(C3)C1)C2	0.962
Cc1ccc2c(c1)c(Sc1ccccc1)c(CC(=O)NCCO)n2C	-3.04
CCCOc1ccc(Cc2nn3c(=O)/c(=C\c4ccc(OCC)c(OC)c4)sc3nc2=O)cc1	1.23
CCN1CC2=C(OC(N)=C(C#N)C2c2ccc(OC)cc2)/C(=C/c2ccc(OC)cc2)C1 (stereo not drawn)	4.3
O=C(CCNC(=O)OCc1ccccc1)NC1CCCCCC1	1.13
COc1cccc(/C=C2/SC(N)=NC2=O)c1OC	1.58
O=C(NCc1ccccc1)c1ccc(Cl)c(S(=O)(=O)N2CCCCCC2)c1	18.2
O=C(O)C1CC=CC[C@@H]1c1cccc2ccccc12 (stereo partly drawn)	-5.71
Cc1cccc(CN2CCN(C(=O)c3ccccc3F)CC2)c1	-1.6
O=C(c1ccc(NS(=O)(=O)c2cccc(Cl)c2)cc1)N1CCCCCC1	-4.56
